# In patent US20180312542A1, “ENDOSOMAL ESCAPE PEPTIDES” (priority 2015, published 2018):
# B1: +36 GFP-BirA: +36 GFP fused to evolved biotin ligase BirA, SEQ ID NO: 80 (protein)
# chain: MGGGSGGSGGSGGSGGSGGSGGSGGSGGSSKGERLFRGKVPILVELKGDVNGHKFSVRGKGKGDATRGKLTLKFICTTGKLPVPWPTLVTTLTYGVQCFSRYPKHMKRHDFFKSAMPKGYVQERTISFKKDGKYKTRAEVKFEGRTLVNRIKLKGRDFKEKGNILGHKLRYNFNSHKVYITADKRKNGIKAKFKIRHNVKDGSVQLADHYQQNTPIGRGPVLLPRNHYLSTRSKLSKDPKEKRDHMVLLEFVTAAGIKHGRDERYKTGGSGGSGGSGGSGGSGGSGGSGGSGG[letters of about 300 residues not shown]GGSHHHHHH
# Tested on: HeLa cells transfected with mCherry-AP
# Assay: BirA translocation assay (mCherry-AP biotinylation, western blot)
# Assay type: cell-based
# Details: 250 nM, 500 nM, and 1 μM
molecule,measurement,value
B1,AP-biotinylation across treatment concentrations,dose-dependent increase
